Results as given in patent EP0034120A1, “Derivatives of phenoxy-phenoxy-carboxylic acids” (CIBA-GEIGY AG, priority 1980, dated 1981).
The name of at least one read-out is uncertain.

What was measured:
Assay in all cases: Herbicidal action, post-emergent application (greenhouse)
Format in all cases: in vivo
Set-up in all cases: key: 1 Pflanze abgestorben; 2-4 schwere Schädigung; 3: 2-4 schwere Schädigung; 2-4 schwere Schädigung; 5, 6 mittlere Schäden; 5, 6 mittlere Schäden; 7, 8 leichte Schäden; 7, 8 leichte Schäden; 9 Pflanze gedeiht normal, wie unbehandelte Kontrollpflanze
Conditions in all cases: 15 days after treatment
[1] = tested on: sinapis alba
[2] = tested on: abutilon sp.
[3] = tested on: chrysanthemum l.
[4] = tested on: viola tricolor
[5] = tested on: amarantus r.
[6] = tested on: Weizen
[7] = tested on: Reis
[8] = tested on: galium aparine
[9] = tested on: chenopodium sp.
[10] = tested on: ipomoea purp.

CCOC(=O)CCC(C)Oc1cc(Oc2ccc(C(F)(F)F)cc2Br)ccc1Cl (centres unmarked) [compound 16]
Zustand der Pflanzen (EWRC Bewertungsschema) ([1]; Aufwandmenge 1/2 kg pro Hektar): 1
Zustand der Pflanzen (EWRC Bewertungsschema) ([1]; Aufwandmenge 1 kg pro Hektar): 1
Zustand der Pflanzen (EWRC Bewertungsschema) ([2]; Aufwandmenge 1/2 kg pro Hektar): 1
Zustand der Pflanzen (EWRC Bewertungsschema) ([2]; Aufwandmenge 1 kg pro Hektar): 1
Zustand der Pflanzen (EWRC Bewertungsschema) ([3]; Aufwandmenge 1/2 kg pro Hektar): 1
Zustand der Pflanzen (EWRC Bewertungsschema) ([3]; Aufwandmenge 1 kg pro Hektar): 1
Zustand der Pflanzen (EWRC Bewertungsschema) ([4]; Aufwandmenge 1/2 kg pro Hektar): 1
Zustand der Pflanzen (EWRC Bewertungsschema) ([4]; Aufwandmenge 1 kg pro Hektar): 1
Zustand der Pflanzen (EWRC Bewertungsschema) ([5]; Aufwandmenge 1/2 kg pro Hektar): 2
Zustand der Pflanzen (EWRC Bewertungsschema) ([5]; Aufwandmenge 1 kg pro Hektar): 1
Zustand der Pflanzen (EWRC Bewertungsschema) ([6]; Aufwandmenge 1/2 kg pro Hektar): 9
Zustand der Pflanzen (EWRC Bewertungsschema) ([6]; Aufwandmenge 1 kg pro Hektar): 8
Zustand der Pflanzen (EWRC Bewertungsschema) ([7]; Aufwandmenge 1/2 kg pro Hektar): 9
Zustand der Pflanzen (EWRC Bewertungsschema) ([7]; Aufwandmenge 1 kg pro Hektar): 8
Zustand der Pflanzen (EWRC Bewertungsschema) ([8]; Aufwandmenge 1/2 kg pro Hektar): 1
Zustand der Pflanzen (EWRC Bewertungsschema) ([8]; Aufwandmenge 1 kg pro Hektar): 1
Zustand der Pflanzen (EWRC Bewertungsschema) ([9]; Aufwandmenge 1/2 kg pro Hektar): 1
Zustand der Pflanzen (EWRC Bewertungsschema) ([9]; Aufwandmenge 1 kg pro Hektar): 1
Zustand der Pflanzen (EWRC Bewertungsschema) ([10]; Aufwandmenge 1/2 kg pro Hektar): 1
Zustand der Pflanzen (EWRC Bewertungsschema) ([10]; Aufwandmenge 1 kg pro Hektar): 1
